The supplement of paper PMC3334620
Whole data set: some 33,000 sequences, median “E-score (-0.5 to 0.5)” near -0.054, cut for the highest 2% near 0.39. Some of the results follow.

molecular target: Ylr278c (UniProt Q05854); assay: PBM E-score (8-mer binding enrichment) (E-score (-0.5 to 0.5)); higher = stronger / more preferred TF binding; most listed sequences are background and not binding sites; conditions: protein concentration: 200 nM; construct: GST-DNA-binding domain
In short: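 E-scores (a modified Wilcoxon-Mann-Whitney statistic) were assigned by the Universal PBM Analysis Suite to every ungapped eight-base word pooled with its reverse complement. The input came from universal all-10-mer Agilent arrays made double-stranded by primer extension and probed with GST-tagged yeast transcription factors at about 100-200 nM. Fluorescent anti-GST detected bound protein, and masliner normalised the scans.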

Sequence | PBM E-score
CATATTAG | -0.1
GACCGGTC | 0.397
GTATGTAA | -0.0676
GACCTTCC | 0.0466
CACAATTA | -0.18
ACACGGAC | 0.267
GTCGATTA | -0.157
TCACGTAA | -0.381
CGGCCAAA | 0.195
ATTGTTAA | -0.134
CACCGCTA | 0.0577
CTGTTAAG | -0.407
AACTGTGT | -0.0652
GCTTGACA | -0.0637
AGCAAGCA | -0.339
TCCATGAA | 0.0602
CGAGCAAC | -0.00501
GGTTACCA | 0.108
ACGGCCAT | -0.0475
GCCCCCGC | 0.226
GACGCTGA | -0.214
GTAGCGGA | 0.299
CGTCGGGA | 0.254
CTGGTCGC | 0.0109
ATTGGCAA | -0.204

Sequence | PBM E-score
ACGCGGAT | 0.23
ATTTCCCG | 0.355
TAGAGGAA | -0.211
ATCACGCA | -0.00752
AAAGCGCT | 0.118
CCTGTTAA | -0.202
ATAGAACA | -0.142
AAAGGTCT | -0.0524
AGAGTGTA | -0.146
CGTCACTA | -0.0571
CCAATCAG | -0.274
AGCGGCAG | 0.0977
CCGTGTTA | 0.0823
ACCTTTAG | -0.0779
ACTAAGGC | 0.00463
ATGTACTA | -0.13
ACTTCAGA | -0.0177
TAGCGCCA | -0.184
CAACTGAG | -0.0875
GACAACCA | -0.0469
CGGTCAAC | 0.169
AGACGCCG | 0.253
GAAGCCGA | 0.264
TAGGGATA | -0.147
CGGCCCAC | 0.129

Sequence | PBM E-score
GGCATCGA | -0.21
CCCTCCGC | 0.259
AATACACA | -0.152
ATGTGGAA | -0.0383
GGAATAAC | 0.29
CTGGTTAA | -0.0405
CCTCTTAG | 0.0901
TAGTTTGA | -0.0722
CTCGTACA | -0.125
GCTGGGCC | -0.111
CGGGAATC | 0.326
TATTCACA | 0.0657
CACTCGCG | 0.0756
ACCTATGG | -0.193
CTATCCCA | -0.197
GAGAAACC | 0.0551
AGACGAGG | -0.0329
AGTAATTA | -0.0875
CCTCCTTA | -0.261
ACGTGTGA | -0.252
ATAACGCC | 0.158
ACTGTTCG | -0.00079
ATCGCGTA | -0.0246
TAAACGTA | -0.186
AACTCTTC | -0.204

Sequence | PBM E-score
AACCGGTG | 0.282
CGTGCGAC | -0.0105
TAGGACCA | -0.148
CATCCAAA | -0.208
GGTTCTCA | -0.0382
CACTTCGG | 0.222
AGTGGCAG | -0.114
ATTATATG | -0.0955
CTCAATGA | -0.235
CCCCGTAG | 0.0474
CCTCACGA | -0.28
TGCGAAAA | 0.0627
TAACATTA | -0.134
AGCAAAGC | -0.0959
GTCCGGGA | 0.38
ATAATTCC | 0.27
ACCTACCC | 0.0998
ATCTCACA | -0.236
CCAATATC | 0.0845
GAAAAGTC | 0.025
AAGAGAGG | -0.138
AAATGTTG | -0.264
TACATGGA | -0.0166
AGAATGCT | -0.17
CCAGCCAC | -0.127

Sequence | PBM E-score
ATTATTGA | -0.101
GAGCCTAC | 0.0364
ATGAAACG | -0.00401
CCCCGTAA | 0.131
AGTAGTTC | 0.138
CAAGCGCC | 0.147
CACAGGAC | -0.0538
AGGGTTGC | -0.258
ACTTTAGG | -0.201
AAATCGAT | -0.214
GTCGGGCA | 0.0838
ACCTAGAG | -0.141
CCTCTCAG | -0.335
GACTCCGC | 0.426
GGCGCTAA | 0.0191
CTTTGCAA | 0.079
ACCGGAAC | 0.428
ACCCGTTG | -0.177
AGACGTTG | -0.155
ATATGATA | 0.0821
TCAGAGCA | -0.282
GCACGGCA | 0.0246
AAATTCCA | 0.115
GGGAGGTA | -0.0269
ACAACAAC | -0.148

Sequence | PBM E-score
ACTCAAAT | -0.134
GACTTAAC | -0.107
ACGCTGTG | -0.235
AATTAATA | 0.198
ATAATATA | 0.0443
ATCACGTG | -0.0223
CGCTCCAG | 0.0273
GAGTGCGC | 0.178
AGACACCC | -0.232
AATCAAGC | -0.241
CAACTTAC | -0.0926
AGGTGTCG | 0.0347
CTGGCCCA | -0.278
AGCCGCTA | 0.0433
CATCAGGA | 0.105
TCGTGCAA | -0.235
CGCATGAC | -0.0664
CCGGCTTC | 0.335
GAGGGTGC | -0.036
AAGTTGAT | -0.155
CCTCTCTC | -0.271
ACTGATGC | -0.0244
AGTGTCTG | -0.255
CATAATCA | -0.125
ACCCGGTC | 0.202

Sequence | PBM E-score
ACTTATTC | 0.172
AAGCTTCG | -0.00667
GCAGATCC | 0.0453
CCACATTC | -0.0129
AGGGGGCC | -0.262
CATTAGCA | -0.143
TGACCTAA | -0.116
AGGTGACT | -0.214
CTTTCCGC | 0.332
ATCCTGTG | -0.13
GATAGACA | -0.324
CCAGTCGG | 0.237
ATGGGCGG | 0.192
AATAATTA | 0.081
AAGTATGG | -0.149
ATTAGTAC | -0.0906
CTAAGATC | -0.0526
CCCAATAG | -0.196
AGCGTTTC | -0.0846
GGTAGGTA | -0.087
GCGTCCGA | 0.292
AGCCTTTG | -0.28
AACGGAAT | 0.379
ACAGCCGA | -0.0138
CGAGCACA | 0.0583

Sequence | PBM E-score
GAATGTAA | 0.133
CGCGCTAA | 0.0872
ATTCCAAC | -0.176
GCCCGGCC | 0.32
AAACATTC | 0.0303
GGCGGATA | 0.293
AGATTAGG | -0.0834
GCCAACCA | 0.00869
CGTGCGTA | -0.0456
AGCCGGAA | 0.43
ACGTAGCA | -0.203
AAGGTTAA | -0.192
CGACGACC | 0.248
CGCCTTCC | 0.161
CTCGGGTC | 0.115
AGGAGGCC | -0.164
GAATATAA | 0.0665
CGGTAATA | 0.242
ATAGCTTC | -0.148
GATACTAC | 0.096
TTACGAAA | -0.0608
AACTATTG | -0.136
AAGCCATT | -0.102
AGTAACCC | -0.0193
CCCAAAGC | -0.122

Sequence | PBM E-score
CCTCTCCG | 0.333
AGTGACAA | -0.18
AGTAGGCA | -0.0759
ACGACTCG | -0.0499
TCACGACA | -0.312
AGATGAGG | -0.133
AGGAGTGC | -0.139
GAAACCTC | 0.0208
CAGGTAAC | -0.178
CGTATCTA | -0.0584
ACAGAAAC | -0.122
CCCTCAAC | -0.122
CGATATCG | 0.177
ATCTGACA | -0.198
AGCTCTCG | 0.0464
CCATGTAG | -0.049
AATGCCCT | -0.0493
AAGAAAGA | -0.0469
CTAGAAAC | -0.285
GGTGCCGA | 0.278
ACGGTCGG | 0.255
TGATCGCA | -0.246
GATCGGGA | 0.227
CTAAATAG | -0.277
AGTCAATG | -0.298

Sequence | PBM E-score
AGGGGAAG | -0.399
CCTGTGTC | -0.107
CGTAGTAC | -0.119
CCGCTCAA | 0.176
GCCTCCGA | 0.398
ATCAGCGC | 0.197
AGACACTG | -0.321
CTGCATCA | -0.299
AAAGGGGT | -0.255
CCTACTTC | -0.0956
ATATACAC | -0.0874
AACAACGG | 0.137
CAAGACTC | -0.0497
CCGGTCAA | 0.351
CGGCACCC | 0.102
CATCGCGA | 0.0541
CGGTCAAA | 0.164
GGAGGAAC | 0.217
ATAAGGCG | -0.0237
AGCTCAAA | 0.053
CGACGTGA | -0.00736
ATCTCAAG | -0.109
AGGCTTGA | -0.221
CAGGTGGC | -0.264
ATAGTTGC | 0.00742

Sequence | PBM E-score
ACTTGAAT | -0.0552
ACCAGCCG | 0.167
CGTAGTCA | -0.235
TACAGAAA | -0.0928
CGACCTCC | 0.28
CCAGTTCA | 0.057
GAGGATAC | -0.125
CCTCAGTA | -0.165
AATCATTA | -0.208
GACAACTC | 0.127
ACCCCCTC | -0.222
CCATGGTC | -0.272
ATGCAGAG | -0.192
ATGGCGAA | 0.189
GGCTGAGA | -0.00471
AAAAACAA | 0.0827
CGTCCTCA | -0.138
GTACCGAA | -0.0221
CGCACCAA | 0.0882
ACGAATTC | -0.1
GGGATCGA | -0.0342
ACCGTACC | -0.0372
CAGCCCCC | -0.213
CTGGGAGA | -0.0411
AGCTGGGG | -0.0831

Sequence | PBM E-score
CCCCCGGC | 0.254
ATATGGAG | 0.0345
GATCCCGA | 0.271
GTCCATCA | 0.0432
GTAAGGCA | -0.198
AGGTCCCG | 0.173
CACGGCTG | -0.0578
ACAATAAA | -0.0377
CCCGTTAA | 0.0382
GCTCGAGA | -0.231
ACGACGCT | -0.155
ATAGCTAC | -0.136
AACATTGG | -0.221
AGACATCA | -0.0738
CAGGGTTA | -0.339
ACTGTCAC | -0.145
AGGTGTTA | -0.317
CGACGTCC | 0.219
GCTTATGA | 0.0147
GTTGTACA | 0.149
GGCCATGA | 0.0397
GCCGTTGA | 0.0232
CGGGGTCC | 0.328
GCTCGATA | -0.0473
AGATCTCA | -0.182

Sequence | PBM E-score
GAGAACGA | 0.0372
AAGGGTCG | -0.0389
GTAGTGAC | 0.0783
CGCATCCA | -0.0772
AGGCATTA | -0.134
CATCGACG | -0.111
GGCTGTAA | -0.267
TCTCTGCA | -0.142
CCACATCG | 0.0693
CGGGGATA | 0.349
AAGTTGTA | -0.13
AAACAACA | -0.119
CGATTATC | 0.12
ACGCCACC | -0.139
ATAATTTG | 0.102
TCTGAAGA | -0.148
CGCTGAGC | -0.147
CCTACGAC | -0.163
TCGTAAAA | -0.0488
ACACGGCC | 0.179
CCAACCAA | -0.0835
CAGCCCTC | -0.127
AGGCGGTG | -0.0602
ACTAGCCG | 0.0848
CCTCTGCA | -0.122

Sequence | PBM E-score
CTATGGCA | -0.344
TCATGCCA | -0.257
CTCTCCAA | 0.0897
ATGGCACA | -0.0452
CCGTTGAG | 0.0643
TCTTTTAA | -0.119
CCGCGGGA | 0.393
ACCGTAAG | 0.0611
AAGTCTCG | -0.0679
CAAAAGTA | -0.125
ACTAACTA | -0.106
CCGGAGGA | 0.465
ATGGGCTA | -0.136
AGTTGGGC | -0.0857
GGTTTTTA | -0.0655
GACCGAAA | 0.225
GATGGCAC | 0.0573
AGTCTGAC | -0.273
AAAACTGA | -0.0811
